Test results reported in article PMC9911399, “Two distinct binding modes provide the RNA-binding protein RbFox with extraordinary sequence specificity”.
Changes are numbered by the printed parent chain; changes in the protein carry UniProt numbers. This is one part of the list.

T1: RBFOX1 RRM (Homo sapiens, UniProt Q9NWB1 109-208)
T1 sequence: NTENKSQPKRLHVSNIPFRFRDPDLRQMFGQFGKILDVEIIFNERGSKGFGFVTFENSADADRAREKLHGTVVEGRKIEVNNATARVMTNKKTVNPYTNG

B1: CUGCCGU (DNA:RNA)
RNA: GGGAGACCGGAAUUCAGAUUGUCCCUGCCGUUUAAAUCCCGUCGUAGCCACCA
DNA 1: CAATCTGAATTCCGGTCTCCC
DNA 2: TGGTGGCTACGACGGGATT
B2: GCUAAUU (DNA:RNA)
RNA: B1 RNA with C25G, U26C, G27U, C28A, C29A, G30U
DNA 1: CAATCTGAATTCCGGTCTCCC
DNA 2: TGGTGGCTACGACGGGATT
B3: AUAUGCG (DNA:RNA)
RNA: B1 RNA with C25A, G27A, C28U, C29G, G30C, U31G
DNA 1: CAATCTGAATTCCGGTCTCCC
DNA 2: TGGTGGCTACGACGGGATT
B4: GCGUAAG (DNA:RNA)
RNA: B1 RNA with C25G, U26C, C28U, C29A, G30A, U31G
DNA 1: CAATCTGAATTCCGGTCTCCC
DNA 2: TGGTGGCTACGACGGGATT
B5: CAGGGAG (DNA:RNA)
RNA: B1 RNA with U26A, C28G, C29G, G30A, U31G
DNA 1: CAATCTGAATTCCGGTCTCCC
DNA 2: TGGTGGCTACGACGGGATT
B6: GAGGACG (DNA:RNA)
RNA: B1 RNA with C25G, U26A, C28G, C29A, G30C, U31G
DNA 1: CAATCTGAATTCCGGTCTCCC
DNA 2: TGGTGGCTACGACGGGATT
B7: UCCUUAA (DNA:RNA)
RNA: GGGAGACCGGAAUUCAGAUUGUCCUCCUUAAUUAAAUCCCGUCGUAGCCACCA
DNA 1: CAATCTGAATTCCGGTCTCCC
DNA 2: TGGTGGCTACGACGGGATT
B8: GAAUGAC (DNA:RNA)
RNA: B7 RNA with U25G, C26A, C27A, U29G, A31C
DNA 1: CAATCTGAATTCCGGTCTCCC
DNA 2: TGGTGGCTACGACGGGATT
B9: AAUAGAA (DNA:RNA)
RNA: B7 RNA with U25A, C26A, C27U, U28A, U29G
DNA 1: CAATCTGAATTCCGGTCTCCC
DNA 2: TGGTGGCTACGACGGGATT
B10: GGGCUUA (DNA:RNA)
RNA: B1 RNA with C25G, U26G, C29U, G30U, U31A
DNA 1: CAATCTGAATTCCGGTCTCCC
DNA 2: TGGTGGCTACGACGGGATT
B11: GGUGUAA (DNA:RNA)
RNA: B7 RNA with U25G, C26G, C27U, U28G
DNA 1: CAATCTGAATTCCGGTCTCCC
DNA 2: TGGTGGCTACGACGGGATT
B12: CGACGCA (DNA:RNA)
RNA: B1 RNA with U26G, G27A, C29G, G30C, U31A
DNA 1: CAATCTGAATTCCGGTCTCCC
DNA 2: TGGTGGCTACGACGGGATT
B13: GAACGCA (DNA:RNA)
RNA: B1 RNA with C25G, U26A, G27A, C29G, G30C, U31A
DNA 1: CAATCTGAATTCCGGTCTCCC
DNA 2: TGGTGGCTACGACGGGATT
B14: UUUGUGG (DNA:RNA)
RNA: B1 RNA with C25U, G27U, C28G, C29U, U31G
DNA 1: CAATCTGAATTCCGGTCTCCC
DNA 2: TGGTGGCTACGACGGGATT
B15: GGGAUUU (DNA:RNA)
RNA: B1 RNA with C25G, U26G, C28A, C29U, G30U
DNA 1: CAATCTGAATTCCGGTCTCCC
DNA 2: TGGTGGCTACGACGGGATT
B16: UCGUGAG (DNA:RNA)
RNA: B7 RNA with C27G, U29G, A31G
DNA 1: CAATCTGAATTCCGGTCTCCC
DNA 2: TGGTGGCTACGACGGGATT
B17: GGUGCGC (DNA:RNA)
RNA: B1 RNA with C25G, U26G, G27U, C28G, U31C
DNA 1: CAATCTGAATTCCGGTCTCCC
DNA 2: TGGTGGCTACGACGGGATT
B18: CGCGGGG (DNA:RNA)
RNA: B1 RNA with U26G, G27C, C28G, C29G, U31G
DNA 1: CAATCTGAATTCCGGTCTCCC
DNA 2: TGGTGGCTACGACGGGATT
B19: CAAGUAU (DNA:RNA)
RNA: B1 RNA with U26A, G27A, C28G, C29U, G30A
DNA 1: CAATCTGAATTCCGGTCTCCC
DNA 2: TGGTGGCTACGACGGGATT
B20: GCCGCGG (DNA:RNA)
RNA: B1 RNA with C25G, U26C, G27C, C28G, U31G
DNA 1: CAATCTGAATTCCGGTCTCCC
DNA 2: TGGTGGCTACGACGGGATT

These binders were tested against T1, RBFOX1 RRM (assay: EMSA; HiTS-Eq, 1 nM pool, 10 min; buffer printed only for the single-RNA assays: 10 mM Tris pH 7.5, 150 mM NaCl, 3.4 mM EDTA, 0.001% NP-40, 30 C). Details: tags: His6 N-terminal (pET28a); label: 5' 32P.
Summary of the method: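 Relative association constants, normalised to the cognate motif, were derived by comparing read counts of each RNA species with those of the control reaction. The RNA sequenced was the free fraction, separated by 8% native PAGE after a 10 min equilibration in 50 µL of 1 nM 5′-radiolabelled RNA (7 randomized nucleotides) with increasing concentrations of purified wild-type or mutant RbFox RRM.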
With B1 the binding signal was 0.0136 KA relative to UGCAUGU.
With B2 the binding signal was 0.00776 KA relative to UGCAUGU.
B3 was tested, and the binding signal was 0.0104 KA relative to UGCAUGU.
In the case of B4, the binding signal is reported as 0.0113 KA relative to UGCAUGU.
In the case of B5, the binding signal is reported as 0.0155 KA relative to UGCAUGU.
With B6 the binding signal was 0.00734 KA relative to UGCAUGU.
B7 was tested, and the binding signal was 0.00377 KA relative to UGCAUGU.
For B8, the binding signal was 0.0186 KA relative to UGCAUGU.
For B9, the binding signal was 0.00406 KA relative to UGCAUGU.
For B10, the binding signal was 0.00939 KA relative to UGCAUGU.
For B11, the binding signal was 0.00368 KA relative to UGCAUGU.
In the case of B12, the binding signal is reported as 0.011 KA relative to UGCAUGU.
In the case of B13, the binding signal is reported as 0.00992 KA relative to UGCAUGU.
For B14, the binding signal was 0.0141 KA relative to UGCAUGU.
For B15, the binding signal was 0.0372 KA relative to UGCAUGU.
For B16, the binding signal was 0.00953 KA relative to UGCAUGU.
For B17, the binding signal was 0.0208 KA relative to UGCAUGU.
B18 was tested, and the binding signal was 0.00721 KA relative to UGCAUGU.
B19 was tested, and the binding signal was 0.000749 KA relative to UGCAUGU.
In the case of B20, the binding signal is reported as 0.0211 KA relative to UGCAUGU.
